The source of these data is paper PMC12280212.

Some targets named below: H4C1 (UniProt P62805); LGALS1 (UniProt P09382); PDIA6 (UniProt Q15084); SERPINH1 (UniProt P50454); PDIA3 (UniProt P30101); TMEM109 (UniProt Q9BVC6); CD44 (UniProt P16070); HSPA5 (UniProt P11021); PPIB (UniProt P23284); NUCB1 (UniProt Q02818); CALR (UniProt P27797); CANX (UniProt P27824); GANAB (UniProt Q14697); RCN1 (UniProt Q15293).
Common to all, as to test: cross-linking mass spectrometry
Holding throughout (settings): DSSO, in cells

Some entries of the source have several records that differ or are many. They are shown here; other results are not. There may be further records. Some entries list several cross-links; each record is another pair of residues.

Sequence of UniProt P50454 (P50454 whole entry): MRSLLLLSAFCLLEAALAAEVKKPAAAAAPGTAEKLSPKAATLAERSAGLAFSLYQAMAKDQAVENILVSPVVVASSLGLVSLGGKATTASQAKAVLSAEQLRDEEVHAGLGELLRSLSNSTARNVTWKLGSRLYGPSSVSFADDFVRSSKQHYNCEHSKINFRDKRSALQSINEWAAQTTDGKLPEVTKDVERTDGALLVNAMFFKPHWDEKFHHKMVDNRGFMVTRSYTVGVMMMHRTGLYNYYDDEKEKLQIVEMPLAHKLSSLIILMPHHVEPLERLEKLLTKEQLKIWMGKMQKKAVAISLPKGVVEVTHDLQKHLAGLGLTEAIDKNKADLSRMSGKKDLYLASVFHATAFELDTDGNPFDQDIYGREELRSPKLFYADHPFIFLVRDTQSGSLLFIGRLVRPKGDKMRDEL
Sequence of UniProt Q9BVC6 (Q9BVC6 whole entry): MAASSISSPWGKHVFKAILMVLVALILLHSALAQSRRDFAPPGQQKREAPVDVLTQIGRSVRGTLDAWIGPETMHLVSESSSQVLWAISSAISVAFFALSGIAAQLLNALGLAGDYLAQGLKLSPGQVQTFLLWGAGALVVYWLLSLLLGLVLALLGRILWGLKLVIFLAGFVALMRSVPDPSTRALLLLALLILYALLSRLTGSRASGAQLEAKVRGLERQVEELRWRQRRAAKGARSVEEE
Sequence of CALU (O43852 whole entry): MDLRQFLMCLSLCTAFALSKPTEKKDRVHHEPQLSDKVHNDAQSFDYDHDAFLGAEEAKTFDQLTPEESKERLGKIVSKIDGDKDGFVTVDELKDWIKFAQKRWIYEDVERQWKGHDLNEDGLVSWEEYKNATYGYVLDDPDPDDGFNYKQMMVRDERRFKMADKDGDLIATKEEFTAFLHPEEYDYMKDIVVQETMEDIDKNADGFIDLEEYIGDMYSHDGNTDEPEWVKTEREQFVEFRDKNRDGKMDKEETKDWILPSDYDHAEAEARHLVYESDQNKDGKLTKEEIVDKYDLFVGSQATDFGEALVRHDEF
Sequence of PPIB (P23284 whole entry): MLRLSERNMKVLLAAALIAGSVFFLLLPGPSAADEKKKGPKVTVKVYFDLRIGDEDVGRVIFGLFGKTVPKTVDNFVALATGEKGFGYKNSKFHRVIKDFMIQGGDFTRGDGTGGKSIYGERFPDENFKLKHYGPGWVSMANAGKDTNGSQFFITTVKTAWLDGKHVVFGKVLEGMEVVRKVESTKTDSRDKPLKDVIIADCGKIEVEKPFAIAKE
Sequence of UniProt P16070 (P16070 whole entry): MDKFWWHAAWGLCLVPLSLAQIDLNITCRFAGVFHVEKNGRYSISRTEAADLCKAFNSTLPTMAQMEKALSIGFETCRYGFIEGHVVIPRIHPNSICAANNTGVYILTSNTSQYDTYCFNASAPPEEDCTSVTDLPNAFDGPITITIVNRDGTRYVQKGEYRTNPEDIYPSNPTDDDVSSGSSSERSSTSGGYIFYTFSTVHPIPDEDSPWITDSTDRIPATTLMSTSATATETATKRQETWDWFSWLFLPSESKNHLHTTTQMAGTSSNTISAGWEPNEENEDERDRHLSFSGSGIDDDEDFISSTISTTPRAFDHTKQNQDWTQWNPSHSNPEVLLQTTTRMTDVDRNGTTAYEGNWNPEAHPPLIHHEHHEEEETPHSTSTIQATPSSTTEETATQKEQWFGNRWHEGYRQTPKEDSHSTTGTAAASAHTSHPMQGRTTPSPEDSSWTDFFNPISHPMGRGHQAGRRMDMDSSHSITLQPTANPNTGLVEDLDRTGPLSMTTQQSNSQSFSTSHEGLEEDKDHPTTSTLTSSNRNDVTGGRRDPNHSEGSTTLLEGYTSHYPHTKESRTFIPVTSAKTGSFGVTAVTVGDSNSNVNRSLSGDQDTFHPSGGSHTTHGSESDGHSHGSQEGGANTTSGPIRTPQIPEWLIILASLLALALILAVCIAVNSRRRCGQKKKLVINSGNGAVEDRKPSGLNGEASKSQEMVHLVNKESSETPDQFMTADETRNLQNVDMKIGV
Sequence of PDIA3, P30101 (P30101 whole entry): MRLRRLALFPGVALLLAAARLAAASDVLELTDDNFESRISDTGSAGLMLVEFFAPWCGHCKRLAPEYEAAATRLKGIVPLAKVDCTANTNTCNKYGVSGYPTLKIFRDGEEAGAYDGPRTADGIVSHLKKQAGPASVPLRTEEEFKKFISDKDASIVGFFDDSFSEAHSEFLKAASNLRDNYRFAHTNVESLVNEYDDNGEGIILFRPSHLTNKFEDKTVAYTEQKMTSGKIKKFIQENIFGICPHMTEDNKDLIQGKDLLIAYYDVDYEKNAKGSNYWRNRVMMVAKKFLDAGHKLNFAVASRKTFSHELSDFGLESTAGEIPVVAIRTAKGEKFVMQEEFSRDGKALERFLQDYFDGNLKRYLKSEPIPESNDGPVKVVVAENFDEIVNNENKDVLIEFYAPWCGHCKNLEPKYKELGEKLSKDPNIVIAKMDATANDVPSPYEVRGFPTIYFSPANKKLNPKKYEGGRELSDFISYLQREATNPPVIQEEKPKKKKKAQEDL
Sequence of PDIA3 (P30101 whole entry): as above
Sequence of CANX, P27824 (P27824 whole entry): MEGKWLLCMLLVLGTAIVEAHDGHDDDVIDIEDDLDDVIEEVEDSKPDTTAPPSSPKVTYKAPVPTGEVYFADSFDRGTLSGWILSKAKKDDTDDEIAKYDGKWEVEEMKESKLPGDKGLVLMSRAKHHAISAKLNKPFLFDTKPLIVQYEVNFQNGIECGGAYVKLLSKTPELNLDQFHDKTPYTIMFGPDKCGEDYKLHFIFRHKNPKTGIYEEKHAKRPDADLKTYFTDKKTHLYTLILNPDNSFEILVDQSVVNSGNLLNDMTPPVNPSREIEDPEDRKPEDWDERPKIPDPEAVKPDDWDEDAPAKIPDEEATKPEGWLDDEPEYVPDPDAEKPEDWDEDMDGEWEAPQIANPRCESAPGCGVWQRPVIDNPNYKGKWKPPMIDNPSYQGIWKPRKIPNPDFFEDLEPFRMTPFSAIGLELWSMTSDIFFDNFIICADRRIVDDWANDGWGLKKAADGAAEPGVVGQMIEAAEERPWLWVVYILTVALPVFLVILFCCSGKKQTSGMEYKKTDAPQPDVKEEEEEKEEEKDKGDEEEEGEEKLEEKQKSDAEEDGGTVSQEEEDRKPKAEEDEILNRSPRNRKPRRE
Sequence of CANX (P27824 whole entry): as above
Sequence of ANXA6 (P08133 whole entry): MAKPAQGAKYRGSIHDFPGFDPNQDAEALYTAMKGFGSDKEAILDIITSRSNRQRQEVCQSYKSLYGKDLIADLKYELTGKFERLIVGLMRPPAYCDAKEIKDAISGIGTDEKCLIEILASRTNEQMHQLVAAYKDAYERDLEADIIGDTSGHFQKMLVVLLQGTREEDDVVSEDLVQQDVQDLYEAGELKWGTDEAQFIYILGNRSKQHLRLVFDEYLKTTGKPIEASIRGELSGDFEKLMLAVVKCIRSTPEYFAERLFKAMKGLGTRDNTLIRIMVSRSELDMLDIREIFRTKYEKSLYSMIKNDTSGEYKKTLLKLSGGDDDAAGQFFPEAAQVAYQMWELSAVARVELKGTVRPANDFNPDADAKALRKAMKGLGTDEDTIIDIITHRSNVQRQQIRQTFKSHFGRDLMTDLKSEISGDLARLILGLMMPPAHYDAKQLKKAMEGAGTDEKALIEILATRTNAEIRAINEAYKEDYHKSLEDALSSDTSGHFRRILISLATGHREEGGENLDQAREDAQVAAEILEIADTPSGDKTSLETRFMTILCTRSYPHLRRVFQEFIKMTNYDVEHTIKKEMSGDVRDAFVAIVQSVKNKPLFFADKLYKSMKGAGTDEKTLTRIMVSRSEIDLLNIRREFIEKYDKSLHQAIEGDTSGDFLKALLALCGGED
Sequence of UniProt P11021 (P11021 whole entry): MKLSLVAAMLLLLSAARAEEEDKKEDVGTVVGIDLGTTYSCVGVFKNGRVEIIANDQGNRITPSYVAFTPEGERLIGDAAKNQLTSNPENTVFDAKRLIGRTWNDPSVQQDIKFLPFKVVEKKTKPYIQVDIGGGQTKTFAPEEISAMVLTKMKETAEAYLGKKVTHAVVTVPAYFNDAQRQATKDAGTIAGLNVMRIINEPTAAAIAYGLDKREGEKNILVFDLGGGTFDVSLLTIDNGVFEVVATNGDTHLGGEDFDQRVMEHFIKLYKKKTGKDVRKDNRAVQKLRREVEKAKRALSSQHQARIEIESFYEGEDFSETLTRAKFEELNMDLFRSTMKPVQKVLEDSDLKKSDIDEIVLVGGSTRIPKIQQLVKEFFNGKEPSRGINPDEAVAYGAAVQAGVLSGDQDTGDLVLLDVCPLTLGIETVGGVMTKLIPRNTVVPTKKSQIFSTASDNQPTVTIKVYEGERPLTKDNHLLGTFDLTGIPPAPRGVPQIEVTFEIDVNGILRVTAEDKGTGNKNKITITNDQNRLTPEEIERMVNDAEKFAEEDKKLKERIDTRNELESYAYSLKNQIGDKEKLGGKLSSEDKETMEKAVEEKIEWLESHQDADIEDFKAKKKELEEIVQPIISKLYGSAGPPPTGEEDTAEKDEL
Sequence of UniProt Q15084 (Q15084 whole entry): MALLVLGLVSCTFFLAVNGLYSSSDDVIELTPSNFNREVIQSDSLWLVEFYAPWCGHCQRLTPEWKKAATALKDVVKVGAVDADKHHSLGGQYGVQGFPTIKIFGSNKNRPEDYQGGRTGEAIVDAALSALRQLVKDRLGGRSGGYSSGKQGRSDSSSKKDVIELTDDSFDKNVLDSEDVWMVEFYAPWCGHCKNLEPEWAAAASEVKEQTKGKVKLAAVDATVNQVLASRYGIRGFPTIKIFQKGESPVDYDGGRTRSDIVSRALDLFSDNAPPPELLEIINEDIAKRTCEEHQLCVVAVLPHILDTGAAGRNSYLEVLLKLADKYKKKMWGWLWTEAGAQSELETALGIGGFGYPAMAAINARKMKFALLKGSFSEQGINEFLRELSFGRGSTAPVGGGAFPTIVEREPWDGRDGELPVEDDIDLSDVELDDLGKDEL
Sequence of PPIB, P23284 (P23284 whole entry): as the sequence (P23284 whole entry) above

For HMGA1, P17096, in the assay with H4C1, the cross-linked residues result is “K15 - K9 and K46 - K9 and K55 - K9”.

With CD63, P08962, the cross-linked residues entry with LGALS1 was “K162 - K29 and K162 - K108”.

Consider PDIA3, P30101, for which the cross-linked residues result was “K332 - K150 and K362 - K150” with PDIA6; “K332 - K190 and K362 - K334” in the assay with SERPINH1.

Turning to CANX, P27824, the cross-linked residues entry with PDIA3 is “K89 - K130 and K90 - K104 and K90 - K130 and K90 - K332 and K90 - K466”; with TMEM109 it was “K233 - K46 and K507 - K215 and K516 - K215 and K525 - K235 and K537 - K235”.

Take BANF1, O75531: in the assay with H4C1, the cross-linked residues entry is “K32 - K9 and K32 - K32 and K32 - K78”.

Turning to ANXA6, P08133, in the assay with CD44, the cross-linked residues result is “K63 - K681 and K63 - K695 and K354 - K739 and K600 - K715”.

Turning to CALU, O43852, the cross-linked residues entry was “K281 - K340 and K281 - K352 and K281 - K370 and K281 - K523 and K281 - K579” with HSPA5; “K79 - K116 and K281 - K116” with PPIB; “K75 - K332 and K79 - K319” with SERPINH1.

TMED10, P49755: the cross-linked residues result in the assay with NUCB1 is “K140 - K280 and K145 - K71”.

As for PPIB, P23284, the cross-linked residues entry with CALR was “K84 - K360 and K92 - K62 and K92 - K153 and K92 - K360 and K116 - K43 and K116 - K62 and K116 - K153 and K116 - K209 and K116 - K355 and K116 - K360 and K116 - K368 and K116 - K374 and K165 - K360 and K165 - K374 and K186 - K64 and K186 - K153 and K186 - K209 and K186 - K360 and K186 - K368 and K195 - K153”; in the assay with CANX, “K84 - K90 and K116 - K90 and K116 - K170 and K165 - K90 and K186 - K210”; in the assay with GANAB, “K116 - K48 and K116 - K191”; in the assay with PDIA3 it was “K84 - K466 and K116 - K332 and K116 - K417 and K116 - K425 and K186 - K129 and K186 - K417”; in the assay with PDIA6, “K116 - K159 and K186 - K150”; in the assay with RCN1, “K116 - K86 and K186 - K86”. In the assay with SERPINH1, the cross-linked residues entry was “K84 - K39 and K92 - K39 and K116 - K39 and K116 - K190 and K116 - K250 and K116 - K252 and K116 - K334”.
